Screen size: about 150,000 compounds; about 540 (0.36%) showed an effect of 50% or more. This is one part of the list.
These molecules were tested on Plasmodium falciparum (assay: Primary screen in NF54 nanoGlo assay, in single point, at 2uM, 72h; a lower Z score goes with more inhibition). Details: timepoint 72 hour.
Format: functional, Erythrocyte
For `CNc1nc(C)cc(C(=O)NCC(C)(C)C[C@H](C)O)n1`, the “% Inhibition” value was -2% and the Z score was 0.43. For `CC(=O)N1CCN(Cc2cn3cc(Br)ccc3n2)CC1`, the “% Inhibition” value was -10% and the Z score was 1.37. In the case of `Cc1nc(-c2ccccc2)sc1-c1nc(-c2ccccc2)ncc1S(=O)(=O)c1ccccc1`, the “% Inhibition” value was 3% and the Z score was -0.34. In the case of `O=C(c1cnn(C2CCCCC2)c1)N1CCCC1`, the “% Inhibition” value was -12% and the Z score was 1.84. With `Cc1nn(CC2CC2)c(=O)n1-c1ccc(OCc2ccccc2)cc1` the “% Inhibition” value was -7% and the Z score was 0.82. `COC(=O)CN(CC#N)C(=O)CCc1cccc(Cl)c1` was tested, and the “% Inhibition” value was -12% and the Z score was 1.48. With `O=C(NCCN1CCN(c2cccc(Cl)c2)CC1)C1CCN(c2nc3cccnc3s2)CC1` the “% Inhibition” value was -22% and the Z score was 1.98. In the case of `CC(=O)NCCNC(=O)c1cc(NCc2ccc(F)cc2F)cc(S(=O)(=O)Nc2ccccc2C)c1`, the “% Inhibition” value was -18% and the Z score was 2.14. `Cc1cnc(C2CC2)n1CCNC(=O)CCC1CCCC1` was tested, and the “% Inhibition” value was -6% and the Z score was 0.74. With `CCOC(CCNC(=O)NC(C)c1n[nH]c(=O)n1C)C1CCCC1` (centres undefined) the “% Inhibition” value was -5% and the Z score was 0.77. In the case of `Nc1nnc(CCc2nnc(N)s2)s1`, the “% Inhibition” value was -25% and the Z score was 2.66. With `COc1ccnc(N2CCC[C@H]2c2ccc3c(c2)OCCCO3)n1` the “% Inhibition” value was -4% and the Z score was 0.35. With `CN(Cc1ncccc1Cl)[C@@H](CC(N)=O)c1ccccc1` the “% Inhibition” value was -4% and the Z score was 0.65. With `Cc1ccc(S(=O)(=O)Nc2ccc3oc(C)nc3c2)c(C)c1` the “% Inhibition” value was 2% and the Z score was -0.33. In the case of `COc1ccc(NC(=O)N2CC[C@@H](C(F)(F)F)C(C)(C)C2)c(C)n1`, the “% Inhibition” value was -7% and the Z score was 0.91. In the case of `C[C@](O)(CN1Cc2ccccc2C1=O)C(=O)OCC1CC1`, the “% Inhibition” value was -3% and the Z score was 0.31. In the case of `c1cc(C2(c3noc(C4CCC4)n3)CCC2)ccn1`, the “% Inhibition” value was 1% and the Z score was -0.18. `O=C(Nc1ccc(Cl)c(N2CCCS2(=O)=O)c1)c1ccc(F)c(F)c1` was tested, and the “% Inhibition” value was -6% and the Z score was 0.61. For `CCC[C@H]1CN(c2cc(C)nc(N)n2)C[C@@H]1NC(=O)C1CCOCC1`, the “% Inhibition” value was 12% and the Z score was -1.53. `Cc1nc(CN(C)C(=O)c2ccccc2Nc2cccc(C)c2C)cs1` was tested, and the “% Inhibition” value was 37% and the Z score was -4.96. In the case of `COC(=O)N1CCC(NCC2(c3cccc(C)c3)CCCC2)CC1`, the “% Inhibition” value was 0% and the Z score was -0.02. In the case of `CCN1C(=O)Cc2cc(NC(=O)c3ccc(Br)o3)ccc21`, the “% Inhibition” value was 35% and the Z score was -1.1. With `Cc1cnn(CCNC(C)C(=O)NCC2COc3ccccc3O2)c1` (centres undefined) the “% Inhibition” value was -2% and the Z score was 0.29. `O=C(NC1CCCC(OC(F)F)C1)c1cnnc2ccccc12` (centres undefined) was tested, and the “% Inhibition” value was 11% and the Z score was -1.35. For `CC(C)N1C(=O)[C@@]2(CC(=O)Nc3c2c(=O)[nH]n3C(C)C)c2cc(Cl)ccc21`, the “% Inhibition” value was -5% and the Z score was 0.57. In the case of `COc1cccc(N(C(=O)[C@H]2CCCO2)c2ccccc2)c1`, the “% Inhibition” value was -3% and the Z score was 0.56. In the case of `CS(=O)(=O)N1CCC[C@@H]1CNC(=O)N1CCC(C(F)F)CC1`, the “% Inhibition” value was -19% and the Z score was 1.72. With `CO[C@H]1CC[C@H](NC(=O)[C@H](O)c2ccc(F)cc2)CC1` the “% Inhibition” value was -16% and the Z score was 3.12. With `COc1cccc(-c2nc(-c3ccc(C)cc3)c(NC(=O)c3ccco3)s2)c1` the “% Inhibition” value was -15% and the Z score was 2.73. `Cc1nccn1CCCNC1(c2ccccc2)CCC1` was tested, and the “% Inhibition” value was 1% and the Z score was -0.16. In the case of `CCC[C@H]1CN(C(=O)c2ccn(C(F)F)n2)C[C@@H]1N`, the “% Inhibition” value was -7% and the Z score was 1.04. `C=CCOc1ccccc1CN[C@H]1C[C@@H](C(=O)NCc2cccnc2)N(C/C=C/c2ccccc2)C1` was tested, and the “% Inhibition” value was 5% and the Z score was -0.6. `CNC(=O)NC1CCN(c2nc3cccnc3n(Cc3ccccc3)c2=O)CC1` was tested, and the “% Inhibition” value was -16% and the Z score was 2.39. For `O=C(c1c(-c2ccccc2)c(-c2ccccc2)n[nH]c1=O)N1CCCCC1`, the “% Inhibition” value was 0% and the Z score was 0.05. In the case of `COc1ccnc(N2CC[S+]([O-])CC2)n1`, the “% Inhibition” value was -1% and the Z score was 0.12. For `C[C@H]1COCCN1CCn1cnc2ccccc2c1=O`, the “% Inhibition” value was -8% and the Z score was 1.28. `O=C(Cc1ccc(F)cc1Br)N1CCn2ccnc2C1` was tested, and the “% Inhibition” value was -5% and the Z score was 0.45. `CC1(C)NC(=O)N(Cc2cc(-c3ccc(Cl)cc3)no2)C1=O` was tested, and the “% Inhibition” value was -11% and the Z score was 1.54. With `CCN(CCO)c1ncc(F)c(-c2ccsc2)n1` the “% Inhibition” value was 0% and the Z score was 0.01. With `CCC(CC)CS(=O)(=O)N1CCCCC[C@@H]1CC` the “% Inhibition” value was -3% and the Z score was 0.39. With `Cc1cnc(C2CCN(C(=O)c3cccs3)CC2)n1[C@H](C)CO` the “% Inhibition” value was -6% and the Z score was 1.09. For `Cc1cc(Cl)cc2c1NC(=O)C21NC(Cc2c[nH]c3ccccc23)[C@H]2C(=O)N(Cc3ccccc3)C(=O)[C@H]21` (some centres undefined), the “% Inhibition” value was -12% and the Z score was 1.58.

— ChEMBL document CHEMBL4888484, “Replenishing the malaria drug discovery pipeline: Screening and hit evaluation of the MMV Hit Generation Library 1 (HGL1) against asexual blood stage Plasmodium falciparum ,using a nano luciferase reporter read-out” (2022)
